Source: PubChem BioAssay AID588795 (National Center for Advancing Translational Sciences (NCATS), 2011)
Where “and” joins values, the source holds several entries; their conditions need not be identical. Equal entries are not always repeated. Screen size: about 390,000 compounds; about 1,400 (0.36%) were called active. The inconclusive results got no clear call from the source; some entries with a clear call stand among them for comparison. The call rests on the fitted dose curve; in most records, active means well fitted inhibition curve with a large enough effect; inconclusive means small, poorly fitted or top-dose-only effect; inactive means no such curve, though single readings can be large or run the other way. Potencies of inconclusive entries are doubtful fits and often do not repeat.

target: Flap endonuclease 1 (Homo sapiens) (UniProt P39748); assay: qHTS Assay for the Inhibitors of Human Flap endonuclease 1 (FEN1).; further: nearly all actives have a fitted effect of over 65% in size; conditions: Recombinant FEN1 flap cleavage, fluorescence, 15 min; series mostly up to 114 µM; activity change, negative = inhibition: at the top concentration
In short: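 Nuclease activity of 10 nM FEN1 was measured after 15 min of room-temperature exposure to titrated compounds, by adding 50 nM flap substrate and reading plates at 0 and 15 min.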
On the % scale 0 is the no-effect control and ±100 the full control effect; potency means the concentration at half of the fitted maximal effect; tags describe the fitted curve by direction and shape.

Chain of UniProt P39748 (P39748 whole entry, looked up): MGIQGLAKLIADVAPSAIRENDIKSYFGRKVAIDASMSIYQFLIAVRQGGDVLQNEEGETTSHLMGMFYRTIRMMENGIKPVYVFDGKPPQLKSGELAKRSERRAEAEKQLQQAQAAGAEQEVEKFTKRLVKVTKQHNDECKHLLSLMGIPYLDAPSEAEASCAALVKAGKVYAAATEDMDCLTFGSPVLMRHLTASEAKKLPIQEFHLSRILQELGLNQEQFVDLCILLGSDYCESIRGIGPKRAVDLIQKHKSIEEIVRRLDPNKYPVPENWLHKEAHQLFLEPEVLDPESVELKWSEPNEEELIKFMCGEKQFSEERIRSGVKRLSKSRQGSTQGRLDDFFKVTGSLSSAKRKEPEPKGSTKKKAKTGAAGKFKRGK

Question: For O=[N+]([O-])c1cc(S(=O)(=O)c2ccc(O)c([N+](=O)[O-])c2)ccc1O, which Potency is on record?
Answer: inconclusive: 63.1 µM [inhibitor, partial curve, poor fit]

Question: For CN1C(=O)/C(=C/c2cccn2-c2ccc3ccccc3c2)C(=O)NC1=S, which Potency is on record?
Answer: inconclusive: 89.1 µM [inhibitor, single point]

Question: How did the Potency turn out when Cc1[nH]nc2ccc(-c3cncc(OC[C@@H](N)Cc4c[nH]c5ccccc45)c3)cc12 was run?
Answer: inconclusive: 44.7 µM [inhibitor, partial curve]

Question: NS(=O)(=O)c1ccc(-c2ccc(C=C3C(=O)NC(=O)NC3=O)o2)cc1 was tested. Which Potency did it give?
Answer: inconclusive: 56.2 µM [inhibitor, partial curve, poor fit]

Question: How did the Potency turn out when COc1cc(/C=C/C(=O)c2c(O)n(CCc3ccccc3)c(=O)[nH]c2=O)ccc1O was run?
Answer: inconclusive: 89.1 µM [inhibitor, single point]

Question: Cc1o[nH]c(=O)c1CC(N)C(=O)O (stereo not drawn) was tested. Which Potency did it give?
Answer: inconclusive: 8.44 µM [inhibitor, single point]

Question: CCOC(=O)c1cnc(SCc2ccc(Cl)c(Cl)c2)nc1N1CC1 was tested. Which “activity change, negative = inhibition” value did it give?
Answer: inactive: 4.23%

Question: With c1ccc2nc3ccccc3cc2c1 as the compound, how does the Potency read?
Answer: inconclusive: 56.2 µM [inhibitor, partial curve, poor fit]

Question: C[C@H](CCC(=O)O)[C@H]1CC[C@H]2[C@@H]3CC[C@@H]4C[C@H](O)CC[C@]4(C)[C@H]3CC[C@]12C was tested. Which Potency did it give?
Answer: inconclusive: 28.2 µM [inhibitor, partial curve, poor fit]

Question: How did the Potency turn out when CCOC(=O)Nc1ccc(NCc2ccc(F)cc2)nc1N was run?
Answer: inconclusive: 3.16 µM [inhibitor, partial curve, poor fit] and inconclusive: 8.91 µM [inhibitor, full curve, poor fit] and inconclusive: 26.7 µM [inhibitor, single point]

Question: Which “activity change, negative = inhibition” value does the source give for Cc1cc(-n2c(/C=C/c3cccs3)nc3ccccc3c2=O)ccc1Br here?
Answer: inactive: -1.01%

Question: With O=c1c2ccccc2nc(/C=C/c2ccc(O)cc2)n1-c1cccc(O)c1 as the compound, how does the Potency read?
Answer: inconclusive: 50.1 µM [inhibitor, partial curve, poor fit]

Question: For O=C(N/N=C/c1c(O)n(Cc2ccc(F)cc2)c(=O)[nH]c1=O)c1ccccc1, which Potency is on record?
Answer: inconclusive: 35.5 µM [inhibitor, partial curve, poor fit]

Question: For O=C1NC(=O)N(CC2CCCO2)C(=O)/C1=C/c1cccs1 (stereo not drawn), which Potency is on record?
Answer: inconclusive: 11.2 µM [inhibitor, partial curve, poor fit]

Question: How did the Potency turn out when COc1cc2c(cc1OC)CN(c1ccc([N+](=O)[O-])c(C(F)(F)F)c1)CC2 was run?
Answer: inconclusive: 50.1 µM [inhibitor, partial curve, poor fit]

Question: Which Potency does the source give for O=C1NC(=O)N(Cc2ccc(F)cc2)C(=O)/C1=C\c1ccc(N2CCCC2)cc1 here?
Answer: inconclusive: 79.4 µM [inhibitor, single point]

Question: Which Potency does the source give for [Cl][In]([Cl])[Cl] here?
Answer: inconclusive: 22.4 µM [inhibitor, partial curve, poor fit]

Question: With CCOC(=O)C1CCCN(c2ccc([N+](=O)[O-])c3nonc23)C1 (stereo not drawn) as the compound, how does the Potency read?
Answer: inconclusive: 56.2 µM [inhibitor, partial curve, poor fit]

Question: Which “activity change, negative = inhibition” value does the source give for CN1C(=O)C(=Cc2ccccc2OCCOc2ccc([N+](=O)[O-])cc2)C(=O)N(C)C1=O here?
Answer: inactive: -22.5%

Question: With CCC(C)N1C(=O)NC(=O)C2(Cc3c(ccc4ccccc34)N(C)C2)C1=O (stereo not drawn) as the compound, how does the Potency read?
Answer: inconclusive: 89.1 µM [inhibitor, partial curve, poor fit]

Question: How did the Potency turn out when CN(C)CC#CCn1c2ccccc2c2ccccc21 was run?
Answer: inconclusive: 31.6 µM [inhibitor, partial curve, poor fit]

Question: With COC(=O)C1=C(c2ccccc2OCc2ccccc2)C[C@@H]2CC[C@H]1N2C(=O)NCc1ccccc1 as the compound, how does the Potency read?
Answer: inconclusive: 79.4 µM [inhibitor, partial curve, poor fit]

Question: With Cc1ccc(/C=C2\C(=O)NC(=S)N(c3cccc(F)c3)C2=O)o1 as the compound, how does the Potency read?
Answer: inconclusive: 22.4 µM [inhibitor, full curve, poor fit]

Question: COC(=O)C1=C(c2ccc(OC(F)(F)F)cc2)C[C@@H]2CC[C@H]1N2C(=O)NCCOc1ccc(OC)cc1 was tested. Which Potency did it give?
Answer: inconclusive: 89.1 µM [inhibitor, partial curve, poor fit]

Question: For O=C(O)c1ccccc1-c1ccc(C=C2C(=O)N(c3ccccc3)C(=S)N(c3ccccc3)C2=O)o1, which Potency is on record?
Answer: inconclusive: 39.8 µM [inhibitor, partial curve]

Question: How did the “activity change, negative = inhibition” value turn out when Cc1ccc(CC2C(=O)N(C)C(=O)N(C)C2=O)s1 was run?
Answer: inactive: -2.48%

Question: With CCCCn1c(O)c(C(C)=NCCc2ccccc2)c(=O)[nH]c1=O as the compound, how does the “activity change, negative = inhibition” value read?
Answer: inactive: -6.01%

Question: For COc1ccc2[nH]c(C)c(CCNCc3cc(OC)c4c(c3)OCO4)c2c1, which Potency is on record?
Answer: inconclusive: 79.4 µM [inhibitor, partial curve, poor fit]

Question: For O=C1NC(=O)N(Cc2ccccc2)C(=O)/C1=C\c1ccco1, which Potency is on record?
Answer: active: 44.7 µM

Question: For O=C(CCc1nc(C2=CCN(Cc3cccc(Cl)c3)CC2)no1)Nc1ccccc1F, which Potency is on record?
Answer: inconclusive: 31.6 µM [inhibitor, partial curve, poor fit]

Question: Which “activity change, negative = inhibition” value does the source give for c1ccc2c(c1)-c1cccc3cccc-2c13 here?
Answer: inactive: -2.39%

Question: Which Potency does the source give for CN1CCc2cc3c(c4c2C1Cc1ccccc1-4)OCO3 (stereo not drawn) here?
Answer: inconclusive: 50.1 µM [inhibitor, partial curve, poor fit]

Question: Which Potency does the source give for Cc1ccc(N2C(=O)NC(=O)/C(=C\C=C\c3ccco3)C2=O)cc1 here?
Answer: inconclusive: 63.1 µM [inhibitor, partial curve, poor fit]

Question: For COc1cccc(C2CCN(CC(=O)Nc3cc(Cl)ccc3OC)CC2O)c1 (stereo not drawn), which Potency is on record?
Answer: inconclusive: 28.2 µM [inhibitor, partial curve, poor fit]

Question: Which “activity change, negative = inhibition” value does the source give for O=C(N/N=C/c1c(O)n(CCc2ccc(F)cc2)c(=O)[nH]c1=O)c1ccncc1 here?
Answer: inactive: -2.52%

Question: CO[C@H]1[C@@H](O)[C@@H](C)O[C@H](O[C@H]2[C@H](Oc3cccc4c(O)c5c(=O)oc6ccc(C)c7c(=O)oc(c34)c5c67)O[C@H](C)[C@H](O)[C@@H]2O)[C@@H]1O was tested. Which Potency did it give?
Answer: active: 10 µM

Question: With Cc1cc(/C=C/c2cccc3sc(C)[n+](CCCCI)c23)ccc1N(CCCl)CCCl as the compound, how does the Potency read?
Answer: inconclusive: 56.2 µM [inhibitor, partial curve, poor fit]

Question: Which Potency does the source give for O=C1NC(=S)N(c2ccc(F)cc2)C(=O)/C1=C\c1ccoc1 here?
Answer: active: 7.94 µM

Question: Which Potency does the source give for Cc1cccc(Oc2nc3c(C)cccn3c(=O)c2/C=C(\C#N)c2nc3ccccc3s2)c1 here?
Answer: inconclusive: 17.8 µM [inhibitor, partial curve, poor fit]

Question: With CCOP(=O)(Nc1ccc2c(c1)C(=NNC(N)=S)c1ccccc1-2)OCC as the compound, how does the Potency read?
Answer: inconclusive: 89.1 µM [inhibitor, partial curve, poor fit]

Question: CCCCCc1nc2c(c(=O)c3ccccc3n2C)c(=O)n1C1CCCCCC1 was tested. Which Potency did it give?
Answer: inconclusive: 50.1 µM [inhibitor, partial curve]

Question: COc1ccc2cc1Oc1ccc(cc1)C[C@H]1c3cc(c(OC)cc3CCN1C)Oc1c(O)c(OC)cc3c1[C@H](C2)N(C)CC3 was tested. Which Potency did it give?
Answer: inconclusive: 50.1 µM [inhibitor, partial curve]

Question: CN1CCc2nc3sc(C#N)c(N)c3c(-c3cccs3)c2C1 was tested. Which Potency did it give?
Answer: inconclusive: 50.1 µM [inhibitor, partial curve, poor fit]

Question: With Nc1cc(Cl)c2nonc2c1[N+](=O)[O-] as the compound, how does the Potency read?
Answer: inconclusive: 56.2 µM [inhibitor, partial curve]

Question: N=C1/C(=C\c2ccc(OC(=O)c3ccccc3Cl)cc2)C(=O)N=C2SC(N3CCOCC3)=NN12 was tested. Which Potency did it give?
Answer: inconclusive: 79.4 µM [inhibitor, partial curve, poor fit]

Question: How did the “activity change, negative = inhibition” value turn out when O=C(NN=Cc1ccc(N(CCCl)CCCl)cc1)c1cc(=O)[nH]c(=O)[nH]1 was run?
Answer: inactive: 6.26%

Question: How did the Potency turn out when CCOC(=O)C1(c2ccccc2)CCN(CCC(=O)Nc2cccc(Br)c2)CC1 was run?
Answer: inconclusive: 50.1 µM [inhibitor, partial curve, poor fit]

Question: How did the Potency turn out when Cc1cccc(N2C(=O)NC(=O)/C(=C\C=C\c3ccco3)C2=O)c1 was run?
Answer: inconclusive: 89.1 µM [inhibitor, single point]

Question: O=C1Nc2ccccc2/C1=C/c1nc2ccccc2c(=O)n1-c1ccc(O)cc1 was tested. Which Potency did it give?
Answer: inconclusive: 35.5 µM [inhibitor, full curve]

Question: With O=C(NCCc1ccccc1)[C@@H]1CC=C[C@@H]2CCN(Cc3ccc(Cl)c(Cl)c3)C(=O)[C@@H]21 as the compound, how does the Potency read?
Answer: inconclusive: 50.1 µM [inhibitor, partial curve, poor fit]

Question: COc1ccc(/C=C2/C(=O)N(c3ccccc3)N=C2C)cc1 was tested. Which Potency did it give?
Answer: inconclusive: 35.5 µM [inhibitor, partial curve, poor fit]

Question: For O=C1NC(=O)N(Cc2ccccc2)C(=O)/C1=C/c1cnc(-c2ccccc2)nc1, which “activity change, negative = inhibition” value is on record?
Answer: inactive: 7.45%

Question: Which “activity change, negative = inhibition” value does the source give for CCn1c(O)c(/C(C)=N/N2CCCCC2c2cccnc2)c(=O)[nH]c1=S (stereo not drawn) here?
Answer: inactive: -5.81%

Question: Which Potency does the source give for CNc1ccc2nc3ccccc3[n+](C)c2c1 here?
Answer: inconclusive: 15.8 µM [inhibitor, full curve, poor fit]

Question: O=c1[nH]sc2cc(F)ccc12 was tested. Which Potency did it give?
Answer: inconclusive: 89.1 µM [inhibitor, single point]

Question: For CN(C)[C@@H]1C(=O)C(C(N)=O)=C(O)[C@@]2(O)C(=O)C3=C(O)c4c(O)cccc4[C@@](C)(O)C3C[C@@H]12 (stereo partly drawn), which Potency is on record?
Answer: inconclusive: 22.4 µM [inhibitor, full curve]

Question: For O=C1NC(=O)N(c2ccc3c(c2)OCO3)C(=O)/C1=C\c1ccc(-c2ccccc2C(=O)O)o1, which Potency is on record?
Answer: inconclusive: 79.4 µM [inhibitor, partial curve]

Question: Which Potency does the source give for COCCCn1c(N)c(C(=O)NCCC(C)C)c2nc3ccccc3nc21 here?
Answer: inconclusive: 56.2 µM [inhibitor, partial curve, poor fit]
